Hit rate of the full screen: of about 310,000 compounds, about 14,000 (4.5%) showed an effect of 50% or more. The effect is printed as a negative number. The list shows a part of the results.
Molecular target: human ether-à-go-go-related gene (hERG) potassium channel (human, UniProt Q12809)
Experiment: primary screen, population patch clamp on CHO cells stably expressing hERG
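Note: peak tail current of the secondary pulse compared with the same well before compound.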

human ether-à-go-go-related gene (hERG) potassium channel, sequence (Q12809 whole entry, looked up): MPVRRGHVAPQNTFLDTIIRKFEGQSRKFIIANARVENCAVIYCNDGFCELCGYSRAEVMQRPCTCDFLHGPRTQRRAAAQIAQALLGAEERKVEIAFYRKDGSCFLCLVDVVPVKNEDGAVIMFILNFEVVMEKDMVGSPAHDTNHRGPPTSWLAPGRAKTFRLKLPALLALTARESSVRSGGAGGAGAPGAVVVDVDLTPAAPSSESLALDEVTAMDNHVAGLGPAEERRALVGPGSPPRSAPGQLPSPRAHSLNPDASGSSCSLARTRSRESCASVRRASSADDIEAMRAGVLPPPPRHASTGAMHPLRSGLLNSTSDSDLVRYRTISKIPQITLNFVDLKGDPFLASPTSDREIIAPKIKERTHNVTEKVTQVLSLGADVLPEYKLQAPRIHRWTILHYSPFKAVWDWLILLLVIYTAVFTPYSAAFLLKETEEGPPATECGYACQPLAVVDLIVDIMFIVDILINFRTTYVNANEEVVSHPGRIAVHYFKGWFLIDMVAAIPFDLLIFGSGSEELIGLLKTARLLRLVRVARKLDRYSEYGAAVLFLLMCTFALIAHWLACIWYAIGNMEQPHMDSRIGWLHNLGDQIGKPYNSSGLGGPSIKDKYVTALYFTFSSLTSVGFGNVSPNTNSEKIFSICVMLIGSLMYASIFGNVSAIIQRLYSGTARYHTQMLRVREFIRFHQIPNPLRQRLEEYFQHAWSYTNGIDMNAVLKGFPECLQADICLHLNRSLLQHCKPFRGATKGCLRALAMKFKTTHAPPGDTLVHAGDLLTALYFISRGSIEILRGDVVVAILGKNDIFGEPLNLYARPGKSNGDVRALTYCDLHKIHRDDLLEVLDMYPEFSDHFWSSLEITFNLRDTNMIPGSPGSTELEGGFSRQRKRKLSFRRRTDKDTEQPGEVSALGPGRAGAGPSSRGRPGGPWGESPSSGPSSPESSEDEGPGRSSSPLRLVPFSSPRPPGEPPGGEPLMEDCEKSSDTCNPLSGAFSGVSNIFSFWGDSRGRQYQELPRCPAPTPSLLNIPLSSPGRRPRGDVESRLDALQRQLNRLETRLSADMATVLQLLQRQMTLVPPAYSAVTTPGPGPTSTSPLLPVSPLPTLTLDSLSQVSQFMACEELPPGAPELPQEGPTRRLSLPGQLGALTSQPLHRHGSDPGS

Row | SMILES | hERG current change (%, negative = inhibition) at 10uM [%]
1 | Nc1c(C(=O)CSc2nnc(COc3ccc(Cl)cc3)o2)c(=O)[nH]c(=O)n1C1CC1 | 10.5
2 | CCN(CC)S(=O)(=O)c1cccc(NC(=O)COC(=O)/C=C/c2cccs2)c1 | -8.54
3 | CC(=O)N1CCN(C(=O)COc2ccc3oc4c(c3c2)CCCC4)CC1 | -25.4
4 | CC(=O)c1c(C)[nH]c(C(=O)NCCc2ccc(Cl)cc2)c1C | -14.4
5 | S=C(NCCc1ccc(Cl)cc1)NCc1ccco1 | 2.75
6 | COCCN(CCOC)C(=O)N1CCOCC1 | 26.3
7 | COc1cc(OC)cc(C(=O)NCc2ccc3[nH]c(C)cc3c2)c1 | 11.1
8 | CCn1c(SCC(=O)N2CCN(S(=O)(=O)c3ccccc3)CC2)nnc1-c1cccs1 | -7.78
9 | N#Cc1ccccc1-c1ccccc1C(=O)N1CCCCC1 | -7.77
10 | Cc1cc(C)c(OCCN2CCCC2)c(Cl)c1 | -42.1
11 | Cc1c(N=C/C=C/c2ccccc2)c(=O)n(-c2ccccc2)n1C | 11.1
12 | N#CC1=C(N)SC(N)=C(C#N)C1c1c(Cl)cccc1Cl | 1.64
13 | O=C(CN1C(=O)c2cccc([N+](=O)[O-])c2C1=O)N1CCN(S(=O)(=O)c2ccccc2)CC1 | -14.3
14 | COCc1cc(C)nc2sc(C(=O)Nc3ccccc3Br)c(N)c12 | -9.3
15 | C(=C\CSc1nnnn1-c1ccccc1)/CSc1nnnn1-c1ccccc1 | -42.6
16 | COc1ccc(-c2cc3nnc(-c4ccccc4)nc3s2)cc1 | 15.8
17 | CCCOc1ccc(C(=O)OCCN(CC)CC)cc1N.Cl | -51.9
18 | CC(C)CCn1c(Sc2nc3ccccc3o2)nc2c1c(=O)[nH]c(=O)n2C | -20.8
19 | O=C(N/C(=C\c1ccco1)C(=O)N1CCOCC1)c1ccco1 | 5.25
20 | COC(=O)c1cc(OC)c(OC)cc1N | -2.91
21 | Cn1nccc1NS(=O)(=O)c1ccc(C(C)(C)C)cc1 | 18.7
22 | COc1ccc(/C=C/C(=O)Nn2cnnc2)cc1 | -7.45

Row | SMILES | hERG current change (%, negative = inhibition) at 10uM [%]
23 | CC1CCN(C(=O)COC(=O)CCCN2C(=O)c3cccc4cccc(c34)C2=O)CC1 | -31.3
24 | NC(=O)c1ccc(NC(=O)CCN=C2NS(=O)(=O)c3ccccc32)cc1 | 15.8
25 | CCOc1ccccc1NC(=O)CSc1nnnn1-c1ccccc1 | -21.3
26 | Cc1ccc(S(=O)(=O)N2CCC(C(=O)OCc3ccc([N+](=O)[O-])cc3)CC2)cc1 | -69.8
27 | O=C(c1cccc(F)c1)N1CCN=C1SCc1cccnc1 | 3.59
28 | Cc1ccc(C)c(N(C(=O)CNC(=O)c2ccco2)C(C(=O)NCC2CCCO2)c2ccccc2)c1 (stereo not shown) | 5.35
29 | NC(=O)c1c(NC(=O)c2ccccc2)sc2c1CCCC2 | -36.9
30 | O=[N+]([O-])c1cc(C(F)(F)F)ccc1NCCNC(=S)Nc1ccc(Cl)cc1 | -5.11
31 | Cc1ccc(CN2CCN(Cc3cccc4c3OCO4)CC2CCO)cc1 (stereo not shown) | -51.2
32 | O=C(NNC(=O)C1CCN(c2ncccn2)CC1)c1ccccc1 | 22.8
33 | Cn1cccc1C(=O)NC(=O)COC(=O)CCNS(=O)(=O)c1cccc(C(F)(F)F)c1 | -52.4
34 | Cn1c(=O)oc2cc(S(=O)(=O)N3CCC(C(=O)NCCc4ccccc4)CC3)ccc21 | 10.3
35 | CCN1CCN(CC(=O)Nc2ccc(S(=O)(=O)N3C(C)CCCC3C)cc2)CC1 (stereo not shown) | -15.7
36 | C/C(CCc1ccccc1)=N/NC(=O)C(=O)NCc1ccccc1 | 21.7
37 | N#CCC(=O)N/N=C/c1cn(Cc2ccccc2C#N)c2ccccc12 | 20.9
38 | Cc1ccc(NC(=S)N(CCCN2CCN(C)CC2)Cc2cccs2)cc1C | -57
39 | Cc1cc2c(cc1S(=O)(=O)CCC(=O)Nc1cccc(C(F)(F)F)c1)OCC(=O)N2 | -54
40 | O=C1N(Cc2cccc(Cl)c2)C[C@@H]2C[C@@H](c3cccc4ncccc34)N3CCC[C@@]123 | -48.8
41 | CNc1c([N+](=O)[O-])cnn1-c1ccc(F)cc1 | -2.95
42 | CC(C)Cn1c(CCCNC(=O)c2ccco2)nc2ccccc21 | -6.77
43 | COc1ccc(NC(=O)C(c2ccc(OC)cc2)N(C)C(=O)CNC(C)=O)cc1 (stereo not shown) | 5.95
44 | CCOC(=O)c1sc(NC(=O)Cn2nnc3sc4c(c3c2=O)CCC(C(C)(C)C)C4)nc1C (stereo not shown) | -2.93

Row | SMILES | hERG current change (%, negative = inhibition) at 10uM [%]
45 | CC(C)=CC(=O)N1CCCC(N2CCN(c3ccccc3C)CC2)C1 (stereo not shown) | -16
46 | O=Cc1c(NCCN2CCCC2)c2ccccc2[nH]c1=O | 19.7
47 | Cc1cccc(/C=C2/Sc3ccc(C(=O)NCCN4CCCC4)cc3NC2=O)c1 | -54.7
48 | COc1ccc(CNC(=O)N2CCN(c3cccc(C)c3C)CC2)cc1OC | -10.1
49 | CCc1nc2ccccc2c(=O)n1-c1cccc(OC)c1 | -14.5
50 | O=C(OCCOCCN=C1NS(=O)(=O)c2ccccc21)c1ccccc1 | 2.47
51 | CC1CCN(CCOCCOc2ccccc2Br)CC1 | -30.1
52 | CN1CCC(=NNC(=O)CN(c2ccccc2)S(=O)(=O)c2ccccc2)CC1 | -1.63
53 | COc1ccc(-c2cc(CCCC(=O)NCCc3ccccc3)no2)cc1 | -5.93
54 | O=c1c2ccccc2nc2n1CCCCC2 | -4.17
55 | CC(=O)N=C1C=CC(=CN(O)C(C)(C)Cc2ccccc2)C=C1 | -6.17
56 | CC(C)(C)c1ccc(OCC(=O)Nc2ccncc2)cc1 | 8.71
57 | COc1ccc([C@H]2CC(=O)C=C(c3cccc(F)c3OC)C2)cc1 | -0.411
58 | CC(C)c1ccc(OCC(=O)Nc2ccc(S(=O)(=O)Nc3ccccn3)cc2)cc1 | 10.7
59 | CCc1c(C)nc2ncnn2c1Nc1ccc(C(C)=O)cc1 | -41.6
60 | C/C=C(/C)C(=O)Nc1cccc(C2=NOC3(C2)C[C@H](C(N)=O)N(C(=O)c2ccc(Cl)cc2)C3)c1 (stereo partly shown) | -14.7
61 | COc1ccc(CNC(=O)CSc2nc3[nH]ncc3c(=O)n2-c2ccccc2Br)cc1 | 9.21
62 | CCOC(=O)C1=C(C)NC(C)=C(C(=O)OCC)C1c1ccccc1/C=C/C(=O)OC(C)(C)C | 16.6
63 | CN(c1ccccc1)S(=O)(=O)c1cc(C(=O)N2CCN(c3ccccn3)CC2)ccc1Cl | -16.3
64 | COc1ccc(C(=O)N(Cc2nc(-c3ccc(C)cc3)no2)C(C)C)cc1OC | -31.4
65 | CCN(CC)C(=O)Cn1cc(S(=O)(=O)CC(=O)Nc2ccccc2C)c2ccccc21 | -5.17
66 | C=CCSc1nnc(NC(=O)c2ccc(Cl)nc2)s1 | 8.73

Row | SMILES | hERG current change (%, negative = inhibition) at 10uM [%]
67 | CCCOc1cc(C)c(S(=O)(=O)N2CCN(C)CC2)cc1C | -12.7
68 | COc1ccc(CSc2ncn[nH]2)cc1[N+](=O)[O-] | 2.83
69 | COc1ccc(NC2=C(Cl)C(=O)N(CCc3ccccc3)C2=O)cc1 | -42.2
70 | Cc1ccc(CNC(=O)c2ccccc2NC(=O)CN2CC(C)OC(C)C2)cc1 (stereo not shown) | -13.2
71 | C=CCOC(=O)c1sc(NC(=O)c2ccco2)nc1C | 5.9
72 | Cc1cc(=O)n2c(n1)OC(CO)C2 (stereo not shown) | 13.3
73 | CCOC(=O)CCc1c(C)c2ccc(OCc3nn[nH]n3)c(C)c2oc1=O | 16.4
74 | O=C(NCc1n[nH]c(=S)n1-c1cccc(Cl)c1)c1ccc(S(=O)(=O)N2CCCC2)cc1 | 7.61
75 | S=c1[nH]nc(C2CCCCC2)n1/N=C/c1ccncc1 | 4.39
76 | CC(=O)NNc1ncnc2c1cnn2-c1ccc(C)c(C)c1 | 49.1
77 | CCN(C(=O)c1cnc(NC(C)C)cc1C(F)(F)F)c1ccc(Cl)cc1Cl | 1.45
78 | CCc1nccn1CCC(=O)N1CCCC(N2CCN(c3cccc(Cl)c3)CC2)C1 (stereo not shown) | -36.1
79 | COc1ccc(NC(=O)CSc2nc3c(c(=O)n2-c2ccc(C)cc2)SCC3)c(OC)c1 | -1.29
80 | CCOc1ccccc1Cn1c(=O)sc2ccccc21 | 7.43
81 | COC(=O)Cc1ccc(NC(=O)c2ccc(C)c(C)c2)cc1 | -4.91
82 | CCCc1nc2ccccc2[nH]1 | 24.6
83 | O=c1c2ccccc2nc(/C=C/c2cccc([N+](=O)[O-])c2)n1CCO | -17.5
84 | O=C(NCc1ccccc1)c1ccc(NC2=NC3CS(=O)(=O)CC3S2)cc1 (stereo not shown) | 3.34
85 | COc1cccc(CNc2nccs2)c1O | 16.9
86 | Cc1cc(C)nc(N2CCC(C(=O)NNC(=O)c3ccccc3)CC2)n1 | 14.8
87 | CC(C)c1ccc(C2(C)NC(=O)N(CC(=O)N3CCN(C(=O)c4cccs4)CC3)C2=O)cc1 (stereo not shown) | -20.8
88 | COc1ccccc1N1CCN(Cc2c(F)cccc2F)CC1 | -18

Source: publication PMC4336329 (PLoS ONE, 2015)
